Measured values published in PubChem BioAssay AID256 (DTP/NCI, 2004).
Where “and” joins values, the source holds several entries; their conditions need not be identical. Equal values may be shown once. This continues a long series; more values of the same kind are listed elsewhere. Inconclusive results and toxic doses are left out.

Tested on: CD2F1 mice, L1210 leukemia ip, survival T/C
Assay: NCI In Vivo Anticancer Drug Screen. Data for tumor model L1210 Leukemia (intraperitoneal) in CD2F1 (CDF1) mice
Details: higher = longer survival
Method: The antitumor activity of compounds was measured in mice bearing transplantable tumors. Survival or tumor size were measured and the results are expressed as the measurement made in the treated group (T) divided by the measurement made in the vehicle treated control group (C). The tumor model used in this assay is L1210 Leukemia (intraperitoneal) in CD2F1 (CDF1) mice

COc1cccc2c1C(=O)c1c(O)c3c(c(O)c1C2=O)C[C@@](O)(C(=O)CO)C[C@@H]3OC1CC(N)C(O)C(C)O1 (stereo partly drawn)
T/C (endpoint: mean survival time, dose: 0.13 mg/kg/injection, schedule: Q01DX009 (ip), vehicle: saline): 108 % of control
T/C (endpoint: mean survival time, dose: 0.2 mg/kg/injection, schedule: Q01DX009 (ip), vehicle: water): 106 % of control
T/C (endpoint: mean survival time, dose: 0.25 mg/kg/injection, schedule: Q01DX005 (ip), vehicle: water): 110 % of control
T/C (endpoint: mean survival time, dose: 0.38 mg/kg/injection, schedule: Q01DX009 (ip), vehicle: saline): 122 % of control
T/C (endpoint: mean survival time, dose: 0.39 mg/kg/injection, schedule: Q01DX009 (ip), vehicle: water): 111 % of control
T/C (endpoint: mean survival time, dose: 0.75 mg/kg/injection, schedule: Q01DX009 (ip), vehicle: saline): 122 % of control
T/C (endpoint: mean survival time, dose: 1.0 mg/kg/injection, schedule: Q04DX003 (ip), vehicle: water): 107 % of control
T/C (endpoint: mean survival time, dose: 1.56 mg/kg/injection, schedule: Q01DX009 (ip), vehicle: water): 167 % of control
T/C (endpoint: mean survival time, dose: 2.0 mg/kg/injection, schedule: Q04DX003 (ip), vehicle: water): 107 % of control
T/C (endpoint: mean survival time, dose: 3.0 mg/kg/injection, schedule: Q01DX001 (ip), vehicle: saline): 108 % of control
T/C (endpoint: mean survival time, dose: 3.12 mg/kg/injection, schedule: Q01DX009 (ip), vehicle: dextrose): 200 % of control
T/C (endpoint: mean survival time, dose: 3.13 mg/kg/injection, schedule: Q01DX009 (ip), vehicle: water): 176 % of control
T/C (endpoint: mean survival time, dose: 3.33 mg/kg/injection, schedule: Q01DX009 (ip), vehicle: saline): 110 % of control
T/C (endpoint: mean survival time, dose: 4.0 mg/kg/injection, schedule: Q01DX001 (ip), vehicle: saline): 108 % of control
T/C (endpoint: mean survival time, dose: 4.0 mg/kg/injection, schedule: Q04DX003 (ip), vehicle: water): 112 % of control
T/C (endpoint: mean survival time, dose: 6.0 mg/kg/injection, schedule: Q01DX001 (ip), vehicle: saline): 111 % of control
T/C (endpoint: mean survival time, dose: 6.0 mg/kg/injection, schedule: Q01DX009 (ip), vehicle: saline): 109 % of control and 110 % of control
T/C (endpoint: mean survival time, dose: 6.25 mg/kg/injection, schedule: Q01DX009 (ip), vehicle: dextrose): 160 % of control
T/C (endpoint: mean survival time, dose: 8.0 mg/kg/injection, schedule: Q01DX001 (ip), vehicle: saline): 105 % of control
T/C (endpoint: median survival time, dose: 0.25 mg/kg/injection, schedule: Q01DX005 (iv), vehicle: water): 106 % of control
T/C (endpoint: median survival time, dose: 0.5 mg/kg/injection, schedule: Q01DX005 (iv), vehicle: water): 112 % of control
T/C (endpoint: median survival time, dose: 1.0 mg/kg/injection, schedule: Q01DX005 (iv), vehicle: water): 112 % of control
T/C (endpoint: median survival time, dose: 1.3 mg/kg/injection, schedule: Q04DX003 (ip), vehicle: saline): 107 % of control
T/C (endpoint: median survival time, dose: 2.0 mg/kg/injection, schedule: Q01DX001 (iv), vehicle: water): 109 % of control
T/C (endpoint: median survival time, dose: 2.9 mg/kg/injection, schedule: Q01DX001 (ip), vehicle: saline): 111 % of control
T/C (endpoint: median survival time, dose: 4.0 mg/kg/injection, schedule: Q01DX001 (iv), vehicle: water): 111 % of control
T/C (endpoint: median survival time, dose: 5.0 mg/kg/injection, schedule: Q04DX003 (ip), vehicle: water): 107 % of control
T/C (endpoint: median survival time, dose: 13.3 mg/kg/injection, schedule: Q01DX001 (ip), vehicle: saline): 109 % of control
